Assay results as given in patent US20090170069A1 (ARIZONA BOARD OF REGENTS ON BEHALF OF THE UNIVERSITY OF …, published 2009).

Target: T1, FRB-NFluc (human; firefly, UniProt P42345 2024-2113; P08659 2-416 = luciferase)
T1 construct: range 2024-2113;range 2-416
Test: cell-free split-luciferase reassembly; interaction depends on rapamycin

B1: CFluc-FKBP (other, firefly;human, not shown: small tags and cut ends)
chain: MSGYVNNPEATNALIDKDGWLHSGDIAYWDEDEHFFIVDRLKSLIKYKGYQVAPAELESILLQHPNIFDAGVAGLPDDDAGELPAAVVVLEHGKTMTEKEIVDYVASQVTTAKKLRGGVVFVDEVPKGLTGKLDARKIREILIKAKKGGKSK[about 100 residues omitted]
binding result: binds
